According to PubChem BioAssay AID686979 (National Center for Advancing Translational Sciences (NCATS), 2013):
Screen size: about 420,000 compounds; about 50,000 (12%) were called active. This list was built around the results that the source calls inconclusive (neither active nor inactive); the mix of calls is not that of the screen. Calls follow the shape of the dose curve; as a rule, active = well fitted inhibition curve with a large enough effect; inconclusive = small, poorly fitted or top-dose-only effect; inactive = flat fitted curve, though single readings scatter. No potency is given beside an inconclusive call; the fits are too rough.

assay: qHTS for Inhibitors of human tyrosyl-DNA phosphodiesterase 1 (TDP1): qHTS in cells in presence of CPT; details: chicken DT40 Tdp1-/-;hTDP1 cells + 20 nM CPT, ATP luminescence, 48 h; activity change, negative = growth inhibition: at 46.2 µM (top of the series); also: nearly all actives have a fitted effect of over 55% in size
Procedure, shortened: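 Chicken DT40 Tdp1-/- cells stably complemented with human TDP1 were seeded at 400 cells/well in medium containing 20 nM camptothecin, exposed to pin-transferred compounds, and grown at 37 °C for at least 48 hr. Viability was read as ATP luminescence.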
% is scaled to controls: 0 for no effect and ±100 for the full control effect; potency is read from the fitted curve at half-maximal effect; tags tell the direction and shape of the fitted curve.

| SMILES | Potency | activity change, negative = growth inhibition |
| --- | --- | --- |
| COc1cc2c(=O)n(Cc3ccco3)c(=O)n(CC(=O)c3cccc(Br)c3)c2cc1OC | inconclusive [inhibitor, partial curve] |  |
| Cc1cc(C)nc(NCCC(=O)O)n1 | inactive |  |
| Cc1ccc(N(Cc2cccs2)C(=O)c2ccco2)cc1 | inconclusive [inhibitor, single point] |  |
| Nc1nn(-c2ccccc2)nc1C(=O)OCc1c(F)cccc1Cl | inactive |  |
| CC(C)(C)c1ccc(C(=O)NC(=S)Nc2ccc(N3CCOCC3)cc2)cc1 | inactive |  |
| O=c1[nH]c2cc3c(cc2cc1C(c1nnnn1C1CCCC1)N1CCSCC1)OCCO3 (stereo not given) | active: 23.1 µM |  |
| O=C(CN1C(=O)NC2(CCOc3ccccc32)C1=O)Nc1cccc(Cl)c1 (stereo not given) | inconclusive [inhibitor, single point] |  |
| CCN1C(=O)/C(=C\c2nc3ccccc3c(=O)n2-c2ccccc2)c2ccccc21 | active: 13 µM |  |
| OCCC1CN(CC(c2ccccc2)c2ccccc2)CCN1C1CCCC1 (stereo not given) | inconclusive [inhibitor, partial curve, poor fit] |  |
| CN1/C(=C\C(=O)c2cccnc2)Sc2ccccc21 | inconclusive [inhibitor, single point] |  |
| COc1ccc(-n2c(SCC(=O)NCc3ccccc3)nc3c([nH]c4ccccc43)c2=O)cc1 | active: 18.4 µM |  |
| COc1cccc(CCNC(=O)C2CCCN(c3ncnc4c3nc3n4CCCCC3)C2)c1OC (stereo not given) | inactive |  |
| CCCN(C(=O)COc1ccc(Cl)cc1Cl)c1c(N)n(Cc2ccccc2)c(=O)[nH]c1=O | inconclusive [inhibitor, single point] |  |
| CCOC(=O)c1cc(-c2ccccc2)sc1NC(=S)Nc1cc(C)ccn1 | inconclusive [inhibitor, single point] |  |
| O=C(c1ccc(Br)cc1)c1sc(N2CCOCC2)nc1-c1ccccc1 | inconclusive [inhibitor, single point] |  |
| COC(=O)C(NC(=O)c1ccc(Cl)cc1)(Nc1nc(C)cs1)C(F)(F)F (stereo not given) | inconclusive [inhibitor, single point] |  |
| COc1ccccc1N(CC(=O)NC1CCCC1)C(=O)CNC(=O)c1cccs1 | inactive |  |
| COC(=O)/C(C#N)=C/c1c(N2CCCCCC2)nc2c(C)cccn2c1=O | inconclusive [inhibitor, single point] |  |
| CC(NS(=O)(=O)c1cccc(C(=O)O)c1)C12CC3CC(CC(C3)C1)C2 (stereo not given) | inconclusive [inhibitor, partial curve] |  |
| CCc1ccc(/C=C2\SC(=S)N(CCCC(=O)N(CCO)c3ccccc3)C2=O)cc1 | inconclusive [inhibitor, single point] |  |
| C[C@]12c3[nH]c4ccccc4c3CCN1C(=O)C(CC(=O)NCc1cccc(C(F)(F)F)c1)C[C@@H]2C(=O)N1CCOCC1 (stereo not given in full) | inconclusive [inhibitor, single point] |  |
| CCOC(=O)[C@@H]1[C@H]2COc3cc(OC)ccc3[C@H]2N2C(=O)N(c3cccc(F)c3)C(=O)[C@]12C | inconclusive [inhibitor, partial curve, poor fit] |  |
| Nc1c(S(=O)(=O)O)cc(Nc2ccc(Nc3nc(Cl)nc(Nc4ccc(S(=O)(=O)O)cc4)n3)c(S(=O)(=O)O)c2)c2c1C(=O)c1ccccc1C2=O | inconclusive [inhibitor, single point] |  |
| CCCCCN(C(=O)CCC(=O)OC(C)C(=O)c1ccc(CC)cc1)c1c(N)n(CCCC)c(=O)[nH]c1=O (stereo not given) | inconclusive [inhibitor, single point] |  |

| SMILES | Potency | activity change, negative = growth inhibition |
| --- | --- | --- |
| CC(C)(C)OC(=O)N1CCCC(C(=O)CC#N)C1 (stereo not given) | inactive |  |
| COc1cccc(CSc2nc3ccncc3[nH]2)c1 | inconclusive [inhibitor, partial curve] |  |
| O=C(NCC1CCCO1)c1ccc(COc2ccc(Br)cc2)cc1 (stereo not given) | active: 29.1 µM |  |
| COc1ccc(NC(=O)CC2Nc3ccccc3NC2=O)cc1 (stereo not given) | inconclusive [inhibitor, single point] |  |
| Cc1ccc2c(c1)C1CC(C)(O2)N(c2cccc(C(=O)NCc3ccccn3)c2)C(=O)N1 (stereo not given) | inconclusive [inhibitor, single point] |  |
| CCCCN(C)C(=O)Cn1cnc2sc(C)c(S(=O)(=O)N3CCC(C)CC3)c2c1=O | inactive |  |
| O=C(COC(=O)C1(c2ccc(F)cc2)CCCC1)N1CCN(C(=O)c2ccco2)CC1 | inconclusive [inhibitor, single point] |  |
| CC(C)CC(=O)NC(C)C(c1cccs1)N1CCOCC1 (stereo not given) | inactive |  |
| COc1ccc(N2CCC(CNC(=O)Nc3ccc(C)c(C)c3)C2)cc1 (stereo not given) | inactive |  |
| O=C(CCn1c(=O)oc2ccccc21)Nc1nc2ccccc2s1 | inconclusive [inhibitor, single point] |  |
| COc1cc(C(F)(F)F)nc2c(Br)c(C(C)(C)C)nn12 | inactive |  |
| O=C1CSC(c2ccccc2)N1Cc1ccccn1 (stereo not given) | inconclusive [inhibitor, single point] |  |
| CCC(=O)Nc1ccc(NC(=S)NC(=O)/C=C/c2ccco2)cc1 | inconclusive [inhibitor, single point] |  |
| COC(=O)N1CCCCC1c1cc(C(=O)N2CCOCC2)no1 (stereo not given) | inactive |  |
| COc1ccc(C2/C=C\CN(C(=O)CC(C)C)CC(=O)N2Cc2ccc(F)cc2)cc1 (stereo not given) | inconclusive [inhibitor, single point] |  |
| Cc1ccc(CNC(=O)COC(=O)c2ccc(S(=O)(=O)N3CCOCC3)cc2)cc1 | inactive |  |
| Cc1nn(-c2ccccc2)c2c1N(CC(=O)N1CCN(c3ccccc3F)CC1)C(=O)CS2 | active: 18.4 µM |  |
| O=S(=O)(/N=C(/Nc1ccc(F)c(F)c1F)c1ccccc1)c1ccccc1 | inactive |  |
| COc1ccccc1Nc1ncnc2scc(-c3ccc(F)cc3)c12 | inconclusive [inhibitor, single point] |  |
| COc1ccc(CC(=O)N[C@@H](CCSC)c2nc3ccccc3[nH]2)cc1 | inconclusive [inhibitor, single point] |  |
| Cc1ccc(C)c(N2CCN(C(=O)CCc3nc(-c4ccccc4C(F)(F)F)no3)CC2)c1 | inconclusive [inhibitor, single point] |  |
| O=C(c1cnc(N2CCN(c3ccccn3)CC2)c2ccccc12)N1CCN(c2cccc(Cl)c2)CC1 | active: 13 µM |  |
| Cc1ccc(S(=O)(=O)c2nc(-c3ccc(F)cc3)oc2N2CCN(c3ccccc3)CC2)cc1 | inconclusive [inhibitor, partial curve] |  |
| O=C(Nc1nc(-c2ccccc2)cs1)c1cccnc1 | inconclusive [inhibitor, single point] |  |

| SMILES | Potency | activity change, negative = growth inhibition |
| --- | --- | --- |
| C/C(=C\c1ccccc1)CN1CCC(C(=O)N2CCC(C)CC2)CC1 |  | inconclusive: -31.5% [inhibitor] |
| O=C(CC12CC3CC(CC(C3)C1)C2)NCc1ccccc1 | inconclusive [inhibitor, single point] |  |
| CCCCCCNC(=O)CC(NS(=O)(=O)c1ccc(OC)cc1)C(C)C (stereo not given) | inconclusive [inhibitor, single point] |  |
| COc1cc(OC)cc(-c2cc3ncccc3cn2)c1 | inconclusive [inhibitor, single point] |  |
| Cc1ccc(S(=O)(=O)/C=C\C#N)cc1 | active: 0.596 µM |  |
| COc1cc(/C=C2\CCc3ccccc3C2=O)cc(OC)c1OC | active: 18.4 µM |  |
| C=CCn1c(=O)c2ccccc2n2c(=S)[nH]nc12 | inactive |  |
| CCOCCCNC(=O)/C(C#N)=C/c1ccc(Cl)c([N+](=O)[O-])c1 | active: 2.59 µM |  |
| O=C(NC12CC3CC(CC(C3)C1)C2)c1ccc([N+](=O)[O-])cc1 | inconclusive [inhibitor, single point] |  |
| CC(=O)OCC1(C)CN(c2ccccc2)N(C(=O)c2ccc(F)cc2)C1=O (stereo not given) | inconclusive [inhibitor, single point] |  |
| C=CCNC(=O)C12CCC(C)(C(=O)[C@H]1Br)C2(C)C (stereo not given in full) | inactive |  |
| COc1ccc(C2(CNC(=O)C(=O)Nc3ccccc3C)CCCC2)cc1OC | active: 23.1 µM |  |
| COc1ccc(CNC(=O)c2cccn2-c2nnc(N3CCCC3)s2)c(OC)c1 | inconclusive [inhibitor, single point] |  |
| COC(=O)c1cc(C(=O)OCC(=O)Nc2ccc(N3CCOCC3)cc2)cc([N+](=O)[O-])c1 | inactive |  |
| Cc1cc2cc(CN(CC3CCCO3)C(=S)Nc3ccccc3)c(=O)[nH]c2cc1C (stereo not given) | active: 6.51 µM |  |
| CN(Cc1cccnc1)C(=O)CNC(=O)c1ccc(Cl)cc1Cl | inactive |  |
| O=C1CCC(C(=O)Nc2ccc(OC(F)F)cc2)N1 (stereo not given) | inactive |  |
| COc1ccc(Cl)cc1NC(=O)CN(C)C(C)C(=O)NC(=O)NC1CCCCC1 (stereo not given) | inconclusive [inhibitor, single point] |  |
| CCCCN(CCCNC(=O)c1cc(Nc2ccccc2OC)nc2ccccc12)c1ccccc1 | inconclusive [inhibitor, single point] |  |
| CCC/C(C#Cc1ccc(N(C)C)cc1)=C1/c2ccccc2C(=O)N1c1ccccc1 | active: 14.6 µM |  |
| COc1ccc(NC(=O)CN(c2ccc(OC)c(Cl)c2)S(=O)(=O)c2ccccc2)cc1 | inconclusive [inhibitor, single point] |  |
| COc1cc(OC)cc(-c2c(Sc3ccccc3)c3cc(-c4ccc5c(c4)OCCO5)ccc3n2C)c1 | inactive |  |
